# Data taken from the supplement of paper PMC11417369.
# ± gives the standard deviation of the averaged measurements. The list shows a part of the results.
# Tested on: PfAP2-G AP2 domain (GST-tagged)
# Experiment: gcPBM binding intensity (ln(normalized median fluorescence intensity)); higher = stronger DNA binding
# Procedure, shortened: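 GST-tagged P. falciparum DNA-binding domains, expressed in E. coli (about 25 μg on average), were applied for 1 h to an Agilent 4 × 180k array of primer-extended double-stranded 36-bp intergenic genomic probes plus negative controls. The binding buffer was 1× PBS with 1% milk, 0.2 mg/ml BSA, 0.5% salmon testes DNA and 0.03% Triton X-100. Bound protein was detected with Alexa488 anti-GST antibody and scanned at 488 nm. Binding intensity is the highest Masliner-normalised natural-log median intensity across replicate spots of either probe orientation.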
row,Sequence,gcPBM binding intensity (ln)
1,TATTTTCATTTGCGCGCACACAATAATAATTTTTGG [CACACA_site3525],10.7 ± 0.33
2,AAATATACAAAATATACACACATATTTATTTATGAT [CACACA_site2051],9.725 ± 0.049
3,AATATATCATTATATAAACACACAATATGTTTTTTA [CACACA_site9260],9.55 ± 0.24
4,AAAAATATATATATATATATATATATAAGGAATATA [XGTACX_negctrl_site450],9.49 ± 0.28
5,AATAAATATATAAATACACACAAACATACATATATA [CACACA_site9340],9.97 ± 0.042
6,TCTATTCATTTTGAAGGTACACATTTCTTTATAATA [XGTACX_site6218],11 ± 0.71
7,GTATTAGATAAATACACACACAAGCATATATTTTTA [CACACA_site3431],9.92 ± 0.014
8,CGTAAACAATTATGATGTACATAAAATATATATATA [XGTACX_site2705],11.3 ± 0.71
9,AATACAATATAGTGAAAAATAATTAAATACAATAAG [XGTACX_negctrl_site161],9.81 ± 0.22
10,ACAAAAAAAAAAATAACACACATGGGGGTGTATAAA [CACACA_site3797],10.7 ± 0.52
11,TTGTTCCACAAAAATTTAGTCAAAAAAAAATAAAAA [TGCATGCA_negctrl_site546],10.2 ± 0.36
12,TATGTGTATGGGAATGCATGTAAATATGTACATATA [TGCATGCA_site737],11.4 ± 0.84
13,ATATATATATACATATGTACATATAAAATAATTTTG [XGTACX_site3731],11.1 ± 0.74
14,TTAAATTTTTTTTTGTGTACGAAAAACAGAAAAAAT [XGTACX_site8625],11.4 ± 1
15,ATATAGATATATAGTAGTACTTGTTATATAAGATAA [XGTACX_site6336],11.2 ± 0.77
16,ACAGAGCTTTAAATACGTACATAATATATATTAAAT [XGTACX_site8221],11.6 ± 0.88
17,TATTGATTTAGAAACACACACTCGAAGATGTTTAAC [CACACA_site1129],9.945 ± 0.078
18,TTTAAAAAATGTTATATTATATAATTAAAAAAAAAA [CACACA_negctrl_site1509],9.57 ± 0.014
19,ATATATATATATAAATGTACATTGTGTGTTGTAAGA [XGTACX_site2434],10.8 ± 0.38
20,ATAAAAAAAAAATAATGTACTTATATATATATATAT [XGTACX_site8282],11.1 ± 0.82
21,AAAAAAAAAAAAAAGAGTACACAGACGTTCAAAGGT [XGTACX_site7566],11.7 ± 0.77
22,TGTATGTATTAATGCGCACACAAAAAATAACAATAT [CACACA_site1848],10.7 ± 0.34

row,Sequence,gcPBM binding intensity (ln)
1,TATTAATTGTGGCACCTTGTATGTTTACAATGACAT [CACACA_negctrl_site1383],10.4 ± 0.11
2,TTCTTCAAAAAAAATTGTACACATCTCTCAAATGTT [XGTACX_site2952],11.3 ± 0.78
3,AATGGATGAATGAATGTATGAATGAATGTATGAATG [CACACA_negctrl_site91],9.84 ± 0.2
4,GTATATTATTTACGTTTGCACTTCATTTTATAGTAA,10.4 ± 0.24
5,GTATTCATGCTAAAGGTGCAATAATTTTTATAATAA [GTGCAC_site9603],10.2 ± 0.21
6,AAGATAAAATTATGTAGTACAAAAAAAAATAAAAAA [XGTACX_site139],11.7 ± 0.91
7,ATCAAACCTTTTAAATGTACATTCGGAGTAAAAAAA [XGTACX_site282],10.9 ± 0.49
8,ATGTATGTGTAACATAGTACTTTTTAAAAGGATATT [XGTACX_site5328],11 ± 0.58
9,TATAGATACATATACACACACACACCCACATATATA [CACACA_site3436],10.4 ± 0.36
10,TATTTTTTATAATAATGTACATATATATATATAATA [XGTACX_site2329],11.2 ± 0.62
11,AATATCATATAAAAATGTACAAATTCTAAAACACGA [XGTACX_site1442],10.8 ± 0.45
12,TACCTAATTCGGTCCCGTACAAGTTAGTTTCAATTC [XGTACX_site2703],10.9 ± 0.59
13,TATTGGGGGTATAAACACAGTAAGTAAATAAATAAA [CACACA_negctrl_site1680],10.6 ± 0.54
14,TTAAAAATGTTGGAAAGTACATATTTTTTAAAAGTA [XGTACX_site802],11.1 ± 0.61
15,CGCCTATAAGCTTAGACACACAAATAAATAAATATA [CACACA_site1264],10 ± 0.12
16,ATTATTTTATAATTCACACATAAATAAAAAAAAAAT [CACACA_site5290],9.84 ± 0.13
17,CAATTTATAAAGAAAACACACATATACATATATACA [CACACA_site1260],9.98 ± 0.014
18,TATTAAACAAATTATGCAAAAATAAATCAATATGTT [CACACA_negctrl_site171],9.915 ± 0.049
19,TGATTTCCAGGTTATTGTACAAAATTAATTTTCGAA [XGTACX_site2491],10.9 ± 0.54
20,AAAAGTTTTATTTAAATGAATTAATCTTTACTATAT [CACACA_negctrl_site282],9.47 ± 0.25
21,ATATATATAAAACACACACACAAAAAAAATAAAGAC [CACACA_site117],10.4 ± 0.22
22,TAAATAAATATATATACACACATATATATATATATA [CACACA_site598],10.2 ± 0.9

row,Sequence,gcPBM binding intensity (ln)
1,TAAATATTATTTCATAGTACTTTTATTATTGATATA [XGTACX_site5566],11 ± 0.62
2,TTTTGTAGTTTATAAATAAAAGAGAATATGGTGCTT [CACACA_negctrl_site413],9.93 ± 0.028
3,ATATAATATAACAATACGCACACGTATACAAAAAAA [CACACA_site3151],10.5 ± 0.42
4,CATATTGTCATTCTGGTGCACTTTTTTTTTTTTTTT,10.8 ± 0.45
5,ATGTAATCATTTTCGACTTTTTTTTTTTTTTTTTTT [CACACA_negctrl_site1132],10.6 ± 0.28
6,AGGAAATGTTTATATACATGCATAATTAAATATAAT [TGCATGCA_site672],9.7 ± 0.18
7,ATAAAATGCGCAAACACACACAAAAAAAAGATATAT [CACACA_site6875],10.12 ± 0.064
8,TTTTTAATTAATCTTATAAATATTTATAAATATATA [CACACA_negctrl_site1485],9.725 ± 0.092
9,ATTATATTTCAATTATGTACATATAAAATGAATAAA [XGTACX_site4204],11.3 ± 0.88
10,TTTTTTTTTTTTTTTTTTTTCTTCATTTAATTTATA [GTGCAC_negctrl_site17],9.54 ± 0.15
11,AATTTTCATTTTAGAAGTACACACAAAAAATAAAAT [XGTACX_site4426],11.7 ± 1.1
12,TACTTAATTATAAGGACATGCACAAAAGGAATTATT [TGCATGCA_site468],10.7 ± 0.38
13,TTTTCATGTTTTTTTCTTTATTTTTTTTTTTTTTTT [GTGCAC_negctrl_site511],9.97 ± 0.34
14,TTTTTTTATTATTATTGTACAAGGCCTTAGGTGATT [XGTACX_site5050],10.8 ± 0.69
15,TATTTACATATTTATATACACACTTTTGCGTGTCTG [CACACA_site1110],10.16 ± 0.042
16,TTTTGTAAAATTAATTTATTATACATATATATTTCT [GTGCAC_negctrl_site728],9.75 ± 0.085
17,TAATGTACTTAAACCGCACACATATAAAAAAATAAA [CACACA_site8926],11.3 ± 1.1
18,TTATTTTAATTTTTGGTGCATATTCAAGTGTACCTT [GTGCAC_site9791],10.8 ± 0.67
19,AATAAAAGGAATAATTGTACATAATGATTATACGTT [XGTACX_site7548],10.7 ± 0.32
20,AAATAAAATACAATATGATAAAATGTTATCATATAT [CACACA_negctrl_site538],9.655 ± 0.035
21,ATAAATAATATAAATACACACTAAAAAAGATATATA [CACACA_site6397],10.01 ± 0.014
22,GTTGTAAAAAGAAAATGTACGTAATAAATATATATA [XGTACX_site3081],11.3 ± 0.81

row,Sequence,gcPBM binding intensity (ln)
1,TATTTTTATTTATATACACACTTACATATTTATATT [CACACA_site7666],10.06 ± 0.078
2,AGAATTTATAAAAACTGTACATATTTTCCAGTTATA [XGTACX_site2848],11.2 ± 0.9
3,AATACTCCATTGTATAGTACATATATTTTTATTTAT [XGTACX_site3641],10.8 ± 0.44
4,AATAAAAAAAAAAATAATATATATGTATAAATATAT [CACACA_negctrl_site1561],9.49 ± 0.071
5,TTAAAAATGTTATAATGTACATATAATATTTTATGA [XGTACX_site5954],11.2 ± 0.6
6,TTGCACTCGTAAAAAGCACACATATAAAAACATTTA [CACACA_site7997],10.3 ± 0.35
7,ATTATAAATATAAATATAAATATATATTGTTCCGCA [TGCATGCA_negctrl_site470],9.49 ± 0.19
8,TTTATCCTTCTTTTGAGTACTCAAAGAGACCTATAA [XGTACX_site8050],11.4 ± 0.86
9,AAAAAAAACAGACACACACACAAATATTTATATATC [CACACA_site6342],10.2 ± 0.19
10,TATATATATATATATATATATATTTTTATTATATAT [XGTACX_negctrl_site89],9.85 ± 0.67
11,ATTATAAATAAAATATGTACATATGTATAAATACAT [XGTACX_site4002],11.3 ± 0.64
12,AAGAAAAAAAAAAAAAAAAAAAAAAAAAAAAAAAAA [TGCATGCA_negctrl_site263],9.565 ± 0.078
13,TTCTGTATATAGTGTGCACACAATTAAAAAAAAAAA [CACACA_site8400],10.7 ± 0.7
14,AAAACACATACTATATGTACATATAATAATTTATAT [XGTACX_site4525],11.2 ± 0.65
15,AAAAAAATTTTTAAAAGTACATTAATATTAATATGT [XGTACX_site5177],11.4 ± 0.7
16,ACATTACAATTATTATAATCAATATATAACCTCTAA [TGCATGCA_negctrl_site105],9.62 ± 0.28
17,TTTTAATTAAATACAAAAAAAAAAAAAAAAAAAAAA [CACACA_negctrl_site1631],9.54 ± 0.36
18,TTTACACTTTTTTTTGTACACACTAATAAGATTAAC [CACACA_site9304],11.4 ± 0.72
19,AAATATATTTTTTTTTGTACTCAAAAAGAAAAAAAA [XGTACX_site8540],11.3 ± 0.83
20,ATAAAATTATATACTCGTACACAAAAAAAAAAAATA [XGTACX_site6035],11.4 ± 1
21,TATATAATAACATATGCATGCAAGTAATATAACCAA [TGCATGCA_site324],10.1 ± 0.099
